Laboratory results reported in PubChem BioAssay AID624296 (National Center for Advancing Translational Sciences (NCATS), 2012).
Screen size: about 350,000 compounds; about 9,900 (2.8%) were called active. Inconclusive results, whose numbers are uncertain, are shown with a selection of clear calls. Calls come from the whole dose curve; as a rule, active = well fitted activation curve with a large enough effect; inconclusive = small, poorly fitted or top-dose-only effect; inactive = no such curve, though single readings can be large or run the other way. Potencies of inconclusive entries are left out as doubtful fits.

test: A quantitative high throughput screen for small molecules that induce DNA re-replication in MCF 10a normal breast cells.; note: nearly all actives have a fitted effect of over 50% in size; for activity, positive = re-replication: % of control where 0% means no effect; conditions: MCF 10A DNA re-replication, Hoechst nuclear intensity, 48 h; activity, positive = re-replication: at 46.1 µM (top of the series)
Potency is the fitted concentration of half-maximal effect; tags give direction and shape of the fitted curve.

Which Potency does the source give for `CC(=O)c1ccc(Nc2nc(C)cc(C)n2)cc1` here?
The Potency was “inactive”.

With `COc1ccc(C2CC(=O)N3CN(c4ccc(C)c(Cl)c4)CSC3=C2C#N)cc1OC` (centres undefined) as the compound, how does the Potency read?
Its Potency is inconclusive [activator, single point].

Which Potency does the source give for `COc1cc(OC)c2c(-c3cccc(-c4cccc(C)c4)c3)cc(=O)oc2c1` here?
Its Potency is inconclusive [activator, single point].

With `O=C(COc1ccccc1Cl)NNC(=O)c1ccc(-n2cncn2)c([N+](=O)[O-])c1` as the compound, how does the Potency read?
The Potency was “inactive”.

Which Potency does the source give for `O=S1(=O)C[C@@H](N2CCOCC2)[C@H](N2CCOCC2)C1` here?
The Potency was “inactive”.

With `C=CCn1c(=O)c2ccccc2n2c(SCC(=O)NCC)nnc12` as the compound, how does the Potency read?
The Potency was “inactive”.

With `COC(=O)C1CC23C=CCN4CCC5(c6ccccc6NC15C2C)C43` (centres undefined) as the compound, how does the activity, positive = re-replication read?
The activity, positive = re-replication was inconclusive: 68.8% [activator].

For `CCCCC(CC)CCC(CC(C)C)OS(=O)(=O)O` (centres undefined), which Potency is on record?
The Potency was “inactive”.

Which Potency does the source give for `CCOc1ccc(-n2nc3c(SCCN4CCCC4)nnc(C)c3c2C)cc1` here?
Its Potency is inconclusive [activator, partial curve, poor fit].

Which activity, positive = re-replication does the source give for `COc1cc2c(c(OC)c1OC)-c1ccc(SC)c(=O)cc1C(NC(=O)c1ccccc1)CC2` (centres undefined) here?
Its activity, positive = re-replication is inconclusive: 98% [activator].

For `CCC(C)/C=C/C1=CC2=C(Cl)C(=O)C3(C)OC(=O)C(C(=O)C(C)C(C)O)C3C2=CO1` (centres undefined), which Potency is on record?
The Potency was inconclusive [activator, full curve, poor fit].

Which Potency does the source give for `O=C(Nc1ccc(-n2cccn2)cc1)C1CCCCN1Cc1cccc2cccnc12` (centres undefined) here?
Its Potency is inconclusive [activator, partial curve, poor fit].

For `COC(=O)c1ccccc1S(=O)(=O)N1CCC(C(=O)OCC(=O)NCC(F)(F)F)CC1`, which Potency is on record?
Its Potency is inconclusive [activator, single point].

For `CCCc1c(C)c(C#N)c2nc3ccccc3n2c1NCCCN1CCOCC1`, which Potency is on record?
The Potency was “inactive”.

With `CN(C)c1ccc(C(C(=O)NCC2CCCO2)N(Cc2ccccc2)C(=O)c2snc(C(N)=O)c2N)cc1` (centres undefined) as the compound, how does the Potency read?
Its Potency is “inactive”.

With `O=C(N/N=C\C=C\c1ccc2c(c1)OCO2)c1ccc(F)cc1` as the compound, how does the activity, positive = re-replication read?
Its activity, positive = re-replication is inconclusive: -22.3% [activator].

With `O=c1c2c(nc3cc(-c4cccc(Cl)c4)[nH]n13)CCCC2` as the compound, how does the Potency read?
Its Potency is inconclusive [activator, single point].

For `Cc1nc2sccn2c(=O)c1S(=O)(=O)N1CCN(c2cccc(Cl)c2)CC1`, which Potency is on record?
Its Potency is “inactive”.

Which Potency does the source give for `CCN(CC)S(=O)(=O)c1cc(NC(=O)Cc2ccc(S(=O)(=O)N3CCOCC3)s2)ccc1Cl` here?
The Potency was inconclusive [activator, full curve, poor fit].

For `Cc1ccc(CSCCNS(C)(=O)=O)cc1`, which Potency is on record?
Its Potency is “inactive”.

For `CCOc1cc(/C=C/c2ccc3cccc([N+](=O)[O-])c3n2)ccc1O`, which Potency is on record?
Its Potency is inconclusive [activator, single point].

With `CCc1cc2c(=O)n3c(nc2s1)-c1[nH]c2ccc(OC)cc2c1CC3` as the compound, how does the Potency read?
Its Potency is inconclusive [activator, single point].

For `COc1ccccc1OCCN1C(=O)S/C(=C\c2ccco2)C1=O`, which Potency is on record?
Its Potency is inconclusive [activator, partial curve, poor fit].

With `COc1cc(NC(=O)Nc2cccc(Cl)c2)c(OC)cc1NC(=O)CN1CCCCC1` as the compound, how does the Potency read?
The Potency was inconclusive [activator, single point].

For `COc1ccc(/C=C/C(=O)N2CCCc3ccccc32)cc1`, which Potency is on record?
Its Potency is inconclusive [activator, single point].

Which Potency does the source give for `COc1ccc(N2CCN(C(=O)CSc3nnc(-c4cc5ccccc5cc4O)n3C)CC2)cc1` here?
The Potency was “inactive”.

With `CN1CCCN(C(=O)c2ccc(Cl)s2)CC1` as the compound, how does the Potency read?
The Potency was “inactive”.

For `CN(C)S(=O)(=O)c1cccc(NC(=O)c2cncc(Br)c2)c1`, which Potency is on record?
Its Potency is inconclusive [activator, single point].

For `CCC(=O)O[C@@H]1[C@H](C)O[C@H](O[C@H]2[C@@H](N(C)C)[C@H](O)[C@@H](O[C@@H]3[C@@H](CC=O)C[C@@H](C)[C@@H](O)/C=C\C=C/C[C@@H](C)OC(=O)C[C@@H](OC(=O)CC)[C@H]3OC)O[C@H]2C)C[C@]1(C)O`, which Potency is on record?
Its Potency is “inactive”.

With `CC(C)(C)c1cc(C(=O)NCCN2CCCC2)cc(C(C)(C)C)c1` as the compound, how does the Potency read?
Its Potency is “inactive”.

With `O=S(=O)(CCN1CCN(C(c2ccccc2)c2ccccc2)CC1)C(F)(F)F` as the compound, how does the Potency read?
The Potency was inconclusive [activator, partial curve, poor fit].

With `CCC(=O)N1CCN(c2ccc(NC(=O)COc3ccc(CC)cc3)cc2)CC1` as the compound, how does the Potency read?
The Potency was inconclusive [activator, single point].

Which Potency does the source give for `C/C(=N\Nc1ccccn1)c1ccc(N2CCOCC2)cc1` here?
Its Potency is “inactive”.

Which Potency does the source give for `COc1ccccc1OCCCCn1c(C(C)O)nc2ccccc21` (centres undefined) here?
Its Potency is “inactive”.

For `Cc1ccc(CSC(Nc2ccc(F)cc2)=C(C#N)C#N)cc1`, which Potency is on record?
Its Potency is active: 13 µM.

With `CCSc1nnc(NC(=O)c2csc3c2CCCC3)s1` as the compound, how does the Potency read?
Its Potency is inconclusive [activator, single point].

Which Potency does the source give for `Cc1ccc2sc(N(CCCN(C)C)C(=O)c3ccc(S(=O)(=O)N(C)C)cc3)nc2c1C` here?
The Potency was “inactive”.

For `C/C(Cn1nnc([N+](=O)[O-])n1)=N\NC(=O)c1ccccc1`, which Potency is on record?
The Potency was “inactive”.

For `O=C(N/N=C/C(Br)=C\c1ccccc1)c1cccs1`, which Potency is on record?
Its Potency is “inactive”.

For `Cc1cc(C(=O)Nc2ccc3c(c2)OCCO3)c(C)o1`, which Potency is on record?
The Potency was “inactive”.

For `COc1ccc(CCN2CN(S(=O)(=O)c3ccc(OC)cc3)c3nc4ccccc4nc32)cc1`, which Potency is on record?
Its Potency is inconclusive [activator, single point].

For `CN1c2ccccc2N(C)C1(C)c1cccc2ccccc12`, which Potency is on record?
Its Potency is inconclusive [activator, single point].

Which Potency does the source give for `CCCCCN1C2=NCCN2c2ccccc21` here?
Its Potency is inconclusive [activator, full curve, poor fit].

Which Potency does the source give for `O=C(NC1=NCCS1)c1ccccc1` here?
The Potency was “inactive”.

Which Potency does the source give for `N#C/C(=C\c1ccncc1)c1ccccn1` here?
The Potency was inconclusive [activator, single point].

Which Potency does the source give for `COc1cc2ccccc2nn1` here?
Its Potency is “inactive”.

With `CCOC(=O)c1oc2ccccc2c1CSc1nnc(-c2ccco2)o1` as the compound, how does the Potency read?
The Potency was inconclusive [activator, partial curve, poor fit].

Which Potency does the source give for `O=C1c2cccc3c([N+](=O)[O-])ccc(c23)C(=O)N1c1ccccn1` here?
Its Potency is active: 4.11 µM.

Which Potency does the source give for `O=C(CSCc1cnn(-c2ccccc2)c1-n1cccc1)NCc1ccc2c(c1)OCO2` here?
The Potency was inconclusive [activator, partial curve, poor fit].

Which Potency does the source give for `O=C(c1cccc(F)c1)N1CCN(C2CCCCC2)CC1` here?
Its Potency is “inactive”.

Which Potency does the source give for `Cc1cc(C(=O)COc2ccc(Cl)cc2Br)c(C)n1C` here?
Its Potency is inconclusive [activator, partial curve, poor fit].

For `CCOC(=O)N1CCC(=NNc2ccc(S(=O)(=O)N3CCOCC3)cc2[N+](=O)[O-])CC1`, which Potency is on record?
The Potency was inconclusive [activator, partial curve, poor fit].

Which Potency does the source give for `NC(=O)c1cc([N+](=O)[O-])ccc1NCc1ccc(C(=O)O)cc1` here?
Its Potency is inconclusive [activator, full curve].

Which Potency does the source give for `CCc1ccc(CN(C)C(=O)CCc2nc3ccccc3n(-c3ccc(OC)cc3)c2=O)cc1` here?
The Potency was inconclusive [activator, single point].

With `O=c1[nH]c(/C=C/c2ccccn2)nc2ccccc12` as the compound, how does the Potency read?
Its Potency is inconclusive [activator, partial curve, poor fit].

With `c1ccc(CN2CCN(c3nc(-c4ccccc4)nc4ccccc34)CC2)cc1` as the compound, how does the Potency read?
The Potency was inconclusive [activator, partial curve, poor fit].

Which Potency does the source give for `COc1cc(/C=N/NC(=O)c2cccnc2)ccc1OS(=O)(=O)c1cc(C)ccc1C` here?
The Potency was inconclusive [activator, single point].

Which Potency does the source give for `CCN(c1ccccc1)S(=O)(=O)c1ccc(OC)c(NC(=O)CCc2nc3ccccc3c(=O)[nH]2)c1` here?
The Potency was inconclusive [activator, partial curve, poor fit].

Which Potency does the source give for `CCN1C/C(=C/c2ccc(OC)c(O)c2)C(=O)/C(=C/c2ccc(OC)c(O)c2)C1` here?
Its Potency is inconclusive [activator, partial curve, poor fit].

For `CCN1CCN(Cc2ccc(NC(=O)c3ccc(C)c(NC(=O)C(=O)c4c[nH]c5ccccc45)c3)cc2C(F)(F)F)CC1`, which Potency is on record?
Its Potency is active: 23.1 µM.

For `NCCCCCNC(=O)c1[nH]cnc1C(=O)N[C@@H](Cc1ccccc1)C(=O)OCc1ccccc1`, which Potency is on record?
Its Potency is “inactive”.

For `COc1ccccc1-c1cnn2c(NCc3ccccc3)cc(C)nc12`, which Potency is on record?
The Potency was inconclusive [activator, single point].

For `CC1(C)Cc2c(c(N3CCOCC3)nc3sc(C(=O)Nc4ccc(Cl)cc4)c(N)c23)CO1`, which Potency is on record?
The Potency was inconclusive [activator, full curve].

With `O=Cc1cccn1-c1ccc2ccccc2c1` as the compound, how does the Potency read?
The Potency was inconclusive [activator, partial curve, poor fit].

Which Potency does the source give for `COc1ccc(OC)c2sc(NC(=O)c3ccc(S(=O)(=O)N4CCOCC4)cc3)nc12` here?
The Potency was inconclusive [activator, partial curve, poor fit].

For `COCC(=O)N(C)c1nnc(-c2ccc([N+](=O)[O-])cc2)s1`, which Potency is on record?
The Potency was inconclusive [activator, single point].

Which Potency does the source give for `COCCC(=O)N1CCC(Oc2ccc(C(=O)NC3CCCCC3)cc2)CC1` here?
The Potency was inconclusive [activator, full curve, poor fit].

For `Cc1cccc(C)c1NC(=O)CNC(=O)C1CC(=O)N(Cc2ccccc2)C1` (centres undefined), which Potency is on record?
Its Potency is “inactive”.

For `CCC1=C(OC(=O)N(CC)CC)N2C(=O)OC(=NCC3CC3)[C@]2(Cc2ccccc2)[C@H]2C1=CC[C@H]1C(=O)N(CC)C(=O)[C@H]12`, which Potency is on record?
The Potency was inconclusive [activator, partial curve, poor fit].
